Laboratory results from PubChem BioAssay AID1347165 (National Center for Advancing Translational Sciences (NCATS), 2019).
Hit rate of the full screen: of about 220,000 compounds, about 5,700 (2.6%) were called active. The shares of active, inactive and inconclusive entries below differ from those in the screen. Calls follow the shape of the dose curve; as a rule, active = well fitted inhibition curve with a large enough effect; inconclusive = small, poorly fitted or top-dose-only effect; inactive = no such curve, though single readings can be large or run the other way. Where the call is inconclusive, the potency comes from a doubtful curve fit.

These compounds were tested against Lysine-specific demethylase 5B (Homo sapiens) (UniProt Q9UGL1) (assay: Primary screen for KDM5B Histone Demethylases FDH-coupled qHTS). Settings: FDH-coupled NADH fluorescence (FDH is formaldehyde dehydrogenase); series mostly up to 57.7 µM.
Outline: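 Inhibition is measured as reduced NADH fluorescence generation from FDH coupling to formaldehyde release. Truncated KDM5BΔAP at 200 nM final acts on H3K4me3 peptide (12.5 µM in substrate mix) in pH 7.5 HEPES buffer with Tween-20, 30 min, room temperature.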
Also: nearly all actives have a fitted effect of over 70% in size.
Potency is read from the fitted curve at half-maximal effect; tags tell the direction and shape of the fitted curve.

UniProt Q9UGL1, sequence (Q9UGL1 whole entry, looked up, the tested form may be a part): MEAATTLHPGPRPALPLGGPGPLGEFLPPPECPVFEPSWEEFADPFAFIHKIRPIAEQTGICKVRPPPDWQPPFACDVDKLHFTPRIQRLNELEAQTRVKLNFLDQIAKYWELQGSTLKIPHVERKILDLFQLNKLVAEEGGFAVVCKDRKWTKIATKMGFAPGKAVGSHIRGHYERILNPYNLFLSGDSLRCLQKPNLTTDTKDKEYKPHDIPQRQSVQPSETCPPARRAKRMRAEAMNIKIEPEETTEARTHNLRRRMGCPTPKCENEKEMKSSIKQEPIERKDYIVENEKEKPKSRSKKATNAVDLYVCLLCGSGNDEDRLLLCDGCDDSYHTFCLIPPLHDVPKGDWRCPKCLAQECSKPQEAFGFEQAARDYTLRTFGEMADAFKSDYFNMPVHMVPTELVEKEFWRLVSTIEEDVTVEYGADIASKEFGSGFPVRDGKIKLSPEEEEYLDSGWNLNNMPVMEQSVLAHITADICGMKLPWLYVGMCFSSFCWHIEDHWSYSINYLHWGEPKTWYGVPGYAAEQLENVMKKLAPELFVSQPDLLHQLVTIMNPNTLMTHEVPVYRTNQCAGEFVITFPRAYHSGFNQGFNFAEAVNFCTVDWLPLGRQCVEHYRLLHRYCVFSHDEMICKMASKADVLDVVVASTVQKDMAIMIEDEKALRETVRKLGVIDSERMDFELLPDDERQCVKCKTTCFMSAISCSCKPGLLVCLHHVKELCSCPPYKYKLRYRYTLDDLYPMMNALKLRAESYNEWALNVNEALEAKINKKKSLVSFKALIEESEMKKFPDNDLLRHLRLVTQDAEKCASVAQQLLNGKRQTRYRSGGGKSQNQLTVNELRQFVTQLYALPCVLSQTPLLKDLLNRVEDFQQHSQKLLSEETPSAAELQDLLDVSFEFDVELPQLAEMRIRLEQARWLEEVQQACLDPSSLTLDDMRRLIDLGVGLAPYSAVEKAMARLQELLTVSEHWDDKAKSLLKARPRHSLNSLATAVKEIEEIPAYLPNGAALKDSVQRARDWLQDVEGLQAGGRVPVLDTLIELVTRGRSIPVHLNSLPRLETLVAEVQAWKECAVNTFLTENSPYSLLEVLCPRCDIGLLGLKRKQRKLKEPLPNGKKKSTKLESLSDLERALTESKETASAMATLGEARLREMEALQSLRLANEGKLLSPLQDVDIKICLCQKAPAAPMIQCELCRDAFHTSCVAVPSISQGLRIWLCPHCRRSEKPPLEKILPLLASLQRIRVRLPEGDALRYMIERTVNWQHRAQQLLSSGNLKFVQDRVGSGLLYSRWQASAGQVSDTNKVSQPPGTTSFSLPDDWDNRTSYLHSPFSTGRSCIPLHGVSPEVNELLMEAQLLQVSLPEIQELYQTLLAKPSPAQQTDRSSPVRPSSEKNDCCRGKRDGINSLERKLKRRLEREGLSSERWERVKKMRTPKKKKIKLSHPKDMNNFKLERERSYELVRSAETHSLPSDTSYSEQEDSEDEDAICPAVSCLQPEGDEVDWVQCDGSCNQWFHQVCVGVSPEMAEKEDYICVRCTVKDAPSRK

Q: How did the Potency turn out when `COc1ccc(C)c2sc(=NC(=O)c3cccc(N4C(=O)CCC4=O)c3)n(C)c12` was run?
A: inconclusive: 28.2 µM [inhibitor, partial curve, poor fit]

Q: Which Potency does the source give for `Cc1cc(N2CCC(NCc3noc(C)n3)CC2)nc(-c2ccccc2O)n1` here?
A: inconclusive: 20 µM [inhibitor, single point]

Q: For `CCC(C(=O)NC(C)C)c1ccccc1` (centres undefined), which Potency is on record?
A: inactive

Q: `CNC(=O)C(C)SCc1ccc(Br)cc1` (centres undefined) was tested. Which Potency did it give?
A: inactive

Q: `CCO[C@H]1CN(C(=O)c2cc(OC)nc3ccccc23)C[C@@H]1O` was tested. Which Potency did it give?
A: inconclusive: 10 µM [inhibitor, single point]

Q: How did the Potency turn out when `CCCc1noc(-c2cccn3c(CNC(=O)c4cc(F)ccc4Cl)nnc23)n1` was run?
A: active: 25.1 µM

Q: `Cc1cccc(NC(=O)c2ccc(-c3ccccc3)s2)c1` was tested. Which Potency did it give?
A: inconclusive: 35.5 µM [inhibitor, single point]

Q: With `CCc1ccc(NC(=O)c2cnn(-c3ccccc3)c2-n2cccc2)cc1` as the compound, how does the Potency read?
A: inconclusive: 35.5 µM [inhibitor, single point]

Q: With `COc1ccc(-c2cn(C)c(=O)n3cc(CN4CCNC(=O)C4)nc23)c(C(F)(F)F)c1` as the compound, how does the Potency read?
A: inconclusive: 25.1 µM [inhibitor, partial curve, poor fit]

Q: How did the Potency turn out when `COc1cccc(CN2CCNc3cc(-c4ccnc(C)c4)ncc3C2)c1` was run?
A: inconclusive: 7.94 µM [inhibitor, partial curve, poor fit]

Q: Which Potency does the source give for `COCC1CN(C)CC12CCN(Cc1ccc(Cl)c(F)c1)CC2` (centres undefined) here?
A: inactive

Q: How did the Potency turn out when `COc1ccc2c(C)c(CCC(=O)Nc3ccccc3F)c(=O)oc2c1` was run?
A: inconclusive: 22.4 µM [inhibitor, partial curve, poor fit]

Q: With `Cc1ccc(NC(=O)CSc2nnc3ccc4ccccc4n23)cc1` as the compound, how does the Potency read?
A: inconclusive: 39.8 µM [inhibitor, single point]

Q: `CSc1cccc(NC(=O)c2ccc3c(c2)N(C)C2CCCN2C3=O)c1` (centres undefined) was tested. Which Potency did it give?
A: inconclusive: 28.2 µM [inhibitor, partial curve, poor fit]

Q: How did the Potency turn out when `COc1ccccc1OCCNC(=O)c1ccc2c(c1)C(O)CCCCCN2C` (centres undefined) was run?
A: inconclusive: 15.8 µM [inhibitor, partial curve, poor fit]

Q: With `CCc1ccc(NC(=O)c2ccc(-c3ccccc3)s2)cc1` as the compound, how does the Potency read?
A: inconclusive: 17.8 µM [inhibitor, partial curve, poor fit]

Q: `Cc1noc(-c2ccn3c(CNC(=O)COc4ccccc4)nnc3c2)n1` was tested. Which Potency did it give?
A: active: 12.6 µM

Q: How did the Potency turn out when `CCCNC(=O)c1ccccc1OCc1ccc(Cl)cc1` was run?
A: inactive

Q: For `Cc1ccc(-c2cc(C(=O)NN=C3CCCC3)c3ccccc3n2)s1`, which Potency is on record?
A: inconclusive: 35.5 µM [inhibitor, partial curve, poor fit]
